Laboratory results: the supplement of paper PMC9151546
Single values are uncertain, as repeats are few or missing.

How the values were obtained:
CHO-K1 [1] = assay: relative survival (nuclei to bead ratio vs DMSO control) (% of vehicle control); higher = more surviving cells
CHO-K1 [2] = assay: hypodiploid nuclei frequency (% of nucleated events); higher = more hypodiploid events (aneugenic)
CHO-K1 [3] = assay: micronucleus frequency (% of nucleated events); higher = more micronuclei (genotoxic)
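For hypodiploid nuclei frequency (% of nucleated events) in this document: hypodiploid nuclei gated on a flow cytometer with 488 nm excitation after SYTOX Green staining, cultures at 37 °C, positive controls vinblastine without S9 and cyclophosphamide with S9.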
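For micronucleus frequency (% of nucleated events) in this document: cells lysed with nuclei stained by SYTOX Green, then micronucleus-gated events counted against nucleated events by flow cytometry with 488 nm excitation.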
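For relative survival (nuclei to bead ratio vs DMSO control) in this document: Lysed-cell nuclei stained with SYTOX Green and counted against counting beads by flow cytometry at 488 nm excitation, with vinblastine (no S9) and cyclophosphamide (plus S9) as positive controls.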

Cl[C@H]1[C@H](Cl)[C@@H](Cl)[C@H](Cl)[C@@H](Cl)[C@@H]1Cl [beta-Hexachlorocyclohexane]
Details | hypodiploid nuclei frequency, CHO-K1 [2] [%] | micronucleus frequency, CHO-K1 [3] [%] | relative survival, CHO-K1 [1]
concentration: 4.5 (µM), S9 metabolic activation: with S9, exposure time: 3-4 hours | 0.22 | 1.52 | 152
concentration: 4.5 (µM), S9 metabolic activation: without S9, exposure time: 24 hours | 0.42 | 1.82 | 135
concentration: 5.63 (µM), S9 metabolic activation: with S9, exposure time: 3-4 hours | 0.2 | 1.08 | 138
concentration: 5.63 (µM), S9 metabolic activation: without S9, exposure time: 24 hours | 0.66 | 3.68 | 110
concentration: 7.04 (µM), S9 metabolic activation: with S9, exposure time: 3-4 hours | 0.28 | 1.12 | 118
concentration: 7.04 (µM), S9 metabolic activation: without S9, exposure time: 24 hours | 0.7 | 2.9 | 116
concentration: 8.8 (µM), S9 metabolic activation: with S9, exposure time: 3-4 hours | 0.26 | 1.4 | 140
concentration: 8.8 (µM), S9 metabolic activation: without S9, exposure time: 24 hours | 0.44 | 2.36 | 108
concentration: 11 (µM), S9 metabolic activation: with S9, exposure time: 3-4 hours | 0.18 | 1.38 | 158
concentration: 11 (µM), S9 metabolic activation: without S9, exposure time: 24 hours | 0.64 | 2.26 | 130
concentration: 13.7 (µM), S9 metabolic activation: with S9, exposure time: 3-4 hours | 0.26 | 1.58 | 149
concentration: 13.7 (µM), S9 metabolic activation: without S9, exposure time: 24 hours | 0.8 | 2.46 | 104
concentration: 17.2 (µM), S9 metabolic activation: with S9, exposure time: 3-4 hours | 0.16 | 2.04 | 149
concentration: 17.2 (µM), S9 metabolic activation: without S9, exposure time: 24 hours | 0.44 | 2.76 | 103
concentration: 21.5 (µM), S9 metabolic activation: with S9, exposure time: 3-4 hours | 0.16 | 1.1 | 130
concentration: 21.5 (µM), S9 metabolic activation: without S9, exposure time: 24 hours | 0.7 | 2.26 | 101
concentration: 26.8 (µM), S9 metabolic activation: with S9, exposure time: 3-4 hours | 0.3 | 1.34 | 230
concentration: 26.8 (µM), S9 metabolic activation: without S9, exposure time: 24 hours | 0.92 | 0.94 | 160
concentration: 33.6 (µM), S9 metabolic activation: with S9, exposure time: 3-4 hours | 0.24 | 1.34 | 159
concentration: 33.6 (µM), S9 metabolic activation: without S9, exposure time: 24 hours | 0.76 | 1.56 | 135
concentration: 41.9 (µM), S9 metabolic activation: with S9, exposure time: 3-4 hours | 0.16 | 1.86 | 156
concentration: 41.9 (µM), S9 metabolic activation: without S9, exposure time: 24 hours | 0.54 | 1.52 | 128
concentration: 52.4 (µM), S9 metabolic activation: with S9, exposure time: 3-4 hours | 0.22 | 1.26 | 133
concentration: 52.4 (µM), S9 metabolic activation: without S9, exposure time: 24 hours | 0.46 | 1.68 | 124
concentration: 65.5 (µM), S9 metabolic activation: with S9, exposure time: 3-4 hours | 0.22 | 1.82 | 124
concentration: 65.5 (µM), S9 metabolic activation: without S9, exposure time: 24 hours | 1.12 | 1.84 | 98.6
concentration: 81.9 (µM), S9 metabolic activation: with S9, exposure time: 3-4 hours | 0.38 | 1.66 | 144
concentration: 81.9 (µM), S9 metabolic activation: without S9, exposure time: 24 hours | 1.16 | 2.18 | 130
concentration: 102 (µM), S9 metabolic activation: with S9, exposure time: 3-4 hours | 0.3 | 1.74 | 158
concentration: 102 (µM), S9 metabolic activation: without S9, exposure time: 24 hours | 0.8 | 1.76 | 101
concentration: 128 (µM), S9 metabolic activation: with S9, exposure time: 3-4 hours | 0.26 | 1.78 | 137
concentration: 128 (µM), S9 metabolic activation: without S9, exposure time: 24 hours | 0.9 | 1.96 | 125
concentration: 160 (µM), S9 metabolic activation: with S9, exposure time: 3-4 hours | 0.32 | 1.62 | 136
concentration: 160 (µM), S9 metabolic activation: without S9, exposure time: 24 hours | 0.94 | 2.64 | 97.4
concentration: 200 (µM), S9 metabolic activation: with S9, exposure time: 3-4 hours | 0.28 | 1.28 | 117
concentration: 200 (µM), S9 metabolic activation: without S9, exposure time: 24 hours | 1.26 | 1.8 | 94.6
